Whole data set: some 33,000 sequences, median “E-score (-0.5 to 0.5)” near -0.053, cut for the highest 2% near 0.37. The list shows a part of the results.
What follows are sequences tested against Hap1 (UniProt P0CE41) (assay: PBM E-score (8-mer binding enrichment) (E-score (-0.5 to 0.5)); higher = stronger / more preferred TF binding; most listed sequences are background and not binding sites). Settings: protein concentration: 200 nM; construct: GST-DNA-binding domain.
How it was run: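 Universal all-10-mer Agilent arrays, double-stranded by primer extension on fresh or once-stripped slides, were probed with about 100-200 nM GST-tagged yeast transcription factors made by PURExpress. Fluorescent anti-GST detected bound protein, and masliner normalised the scans. E-scores from the Universal PBM Analysis Suite were given to each ungapped eight-base word pooled with its reverse complement.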

Chain of UniProt P0CE41 (P0CE41 whole entry, the tested form may be a part): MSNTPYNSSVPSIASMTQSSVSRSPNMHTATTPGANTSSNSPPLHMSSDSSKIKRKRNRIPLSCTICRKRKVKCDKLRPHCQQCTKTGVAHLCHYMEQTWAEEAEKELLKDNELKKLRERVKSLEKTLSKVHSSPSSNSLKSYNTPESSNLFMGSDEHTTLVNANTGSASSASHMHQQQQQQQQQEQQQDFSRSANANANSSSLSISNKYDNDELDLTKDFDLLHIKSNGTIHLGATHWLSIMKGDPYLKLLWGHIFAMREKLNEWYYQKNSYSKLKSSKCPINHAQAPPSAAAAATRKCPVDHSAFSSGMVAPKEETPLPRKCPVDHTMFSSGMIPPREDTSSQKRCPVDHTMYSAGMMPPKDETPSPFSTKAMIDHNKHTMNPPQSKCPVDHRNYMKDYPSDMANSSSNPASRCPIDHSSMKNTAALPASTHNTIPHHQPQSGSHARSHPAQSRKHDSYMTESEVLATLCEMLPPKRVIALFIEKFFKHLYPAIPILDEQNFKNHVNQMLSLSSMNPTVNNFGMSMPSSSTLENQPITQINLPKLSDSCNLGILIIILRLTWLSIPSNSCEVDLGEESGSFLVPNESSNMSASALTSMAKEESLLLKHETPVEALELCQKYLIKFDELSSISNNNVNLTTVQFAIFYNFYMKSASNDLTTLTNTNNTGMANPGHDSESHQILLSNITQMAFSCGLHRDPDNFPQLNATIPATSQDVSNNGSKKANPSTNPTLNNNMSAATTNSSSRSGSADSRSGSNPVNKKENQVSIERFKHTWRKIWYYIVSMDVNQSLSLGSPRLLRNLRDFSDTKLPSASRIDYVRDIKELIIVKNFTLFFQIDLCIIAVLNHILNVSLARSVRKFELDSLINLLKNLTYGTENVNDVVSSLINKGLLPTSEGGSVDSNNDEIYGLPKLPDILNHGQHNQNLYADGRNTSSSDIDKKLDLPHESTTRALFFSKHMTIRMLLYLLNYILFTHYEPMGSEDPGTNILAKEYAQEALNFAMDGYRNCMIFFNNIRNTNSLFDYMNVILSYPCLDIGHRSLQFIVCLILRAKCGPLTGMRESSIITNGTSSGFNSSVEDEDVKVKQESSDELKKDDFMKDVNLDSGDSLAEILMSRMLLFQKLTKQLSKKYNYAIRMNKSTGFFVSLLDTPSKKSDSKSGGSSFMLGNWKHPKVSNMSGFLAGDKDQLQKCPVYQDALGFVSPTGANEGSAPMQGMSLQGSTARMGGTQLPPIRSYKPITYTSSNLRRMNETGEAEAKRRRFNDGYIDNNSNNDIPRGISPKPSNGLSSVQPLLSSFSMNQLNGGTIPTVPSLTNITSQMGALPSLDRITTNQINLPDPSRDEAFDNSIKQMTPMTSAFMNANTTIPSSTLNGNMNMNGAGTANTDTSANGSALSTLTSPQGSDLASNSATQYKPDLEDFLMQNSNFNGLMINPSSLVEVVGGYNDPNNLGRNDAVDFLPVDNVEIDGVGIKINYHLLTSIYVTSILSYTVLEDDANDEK

Sequence | PBM E-score
TAACGCTA | -0.0508
AACAATGT | -0.123
AACGACCG | 0.067
AGATAGCG | -0.0742
AGTAAATA | 0.101
ATCTCTGC | -0.0583
GTTTGCAA | -0.138
AGGTTGTC | -0.242
CGACGCTC | 0.0595
ATATTTTC | 0.0401
AAGGCCTC | -0.182
ACGCTGTC | 0.152
CTGCACAC | -0.253
ACTCAAGA | -0.214
CTGGGCCC | 0.0211
CTACGAGC | -0.109
CCTAGTCG | -0.171
ATCTCGTG | -0.0856
ATTCCCCC | 0.134
TGGTTTAA | -0.161
CACGCCCC | 0.0862
ATACGCAG | -0.262
ATCACTCC | 0.00325
GCCAACAC | 0.0365
GAGCTGGA | -0.101
GTGCAGTA | 0.0339

Sequence | PBM E-score
CAATCTTC | -0.138
CCCGTACA | -0.146
ACGCTTCT | -0.0831
GATAGCTA | -0.188
CGACTGAC | -0.0575
GTACCAGA | -0.273
CAAATATC | 0.172
AAGCTAAC | -0.139
ATATTGAG | -0.0371
CTCCCTGA | -0.162
CTACCTGA | -0.232
CACCAAAG | 0.00756
CCGTCTTC | 0.167
AATTGCCT | 0.0821
ACGGAGAA | 0.27
AGACCCAT | -0.137
CACTTTGC | -0.119
CGGGAGCA | 0.198
GGTGCAGA | -0.121
ATGAACCC | -0.0153
TATGTCCA | 0.126
GCAGCAAC | -0.0558
AGCGCTGG | -0.0242
AGGCCGAT | 0.327
AACTTCCA | 0.0156
AATCCATT | -0.0926

Sequence | PBM E-score
ATACATCC | 0.25
CAATTTCC | 0.249
GATGCAGC | -0.00204
CAACTAGG | -0.171
AACTTGGG | 0.0531
GACCGCCA | 0.0247
CGTGAGTA | -0.0097
AAGCTCGC | -0.008
CACCACCC | 0.106
ATGATCTC | -0.049
CAACCGCA | 0.0443
CGTACTTA | 0.105
CACTCTGG | -0.116
AGCCAATA | -0.23
AAATAGTC | 0.171
GAGAAGGC | -0.193
CGAGGTGA | 0.0779
CCATGGGG | -0.0695
CACTCCCC | 0.208
GGAATCTA | 0.0948
TAGGCGAA | -0.14
AGGACCTA | 0.095
CAGGGCGG | 0.0375
AACAACGA | -0.0348
GCGGTCAC | 0.0915
AGGTCACA | -0.242

Sequence | PBM E-score
AATGACAA | -0.147
AACTTCTA | -0.187
TAATACCA | 0.0482
AGCGTCGG | 0.208
ACAGAGAG | -0.328
CCAGTTTA | -0.113
CGCAGGCG | -0.208
ACGAGACC | 0.0348
CCATGTTA | -0.184
AGCGATAG | 0.119
CCTCGTAA | -0.00632
AGAGACGG | 0.068
AGGTGTGA | -0.211
AAGAGGGA | -0.278
ATAGCAAC | -0.0895
CGACGCAA | 0.054
TCGCCGCA | 0.206
ACTAGTGG | -0.0848
AGTCTGTC | -0.23
ATACGTTG | -0.24
CGCATCAC | -0.0968
ATCTCGCC | 0.0687
TCCGGCCA | 0.354
AAAGATCT | -0.166
TACTTATA | -0.12
CATGTCGA | -0.113

Sequence | PBM E-score
TAATTTGA | -0.145
AAACCTTT | 0.0857
CCAGTTCC | 0.127
TATAGCCA | -0.106
CGGCGGCA | 0.231
CGGCAGTC | 0.0246
TCAGTCCA | -0.357
CTTTGAAA | -0.237
GCTGTCCA | -0.0659
AACCAATT | -0.0914
AAGCTAGT | -0.0846
CGTCAAAC | -0.0497
AACCGCTA | 0.0737
ATCAATAA | -0.0144
CGCTGCGC | 0.00087
AAGTCGAA | -0.189
AACTAGAT | 0.0194
GACGGCGC | 0.0831
AGCGCAAA | -0.0067
GAACATCC | 0.23
CCCATACC | -0.0126
CTGTACCA | -0.279
AATGCTGC | -0.12
CACGCGTA | -0.0404
ATGACGTG | -0.182
GACCACGA | -0.159

Sequence | PBM E-score
ACGAAGCC | 0.00312
TCTATGCA | -0.32
ACACTAAG | -0.214
GTGCTAGA | -0.244
GGAAAAAC | 0.0691
GGCATTCA | -0.0145
GCAGTGAC | -0.101
ATCTGGAA | -0.11
CCGTACAC | 0.0113
CAAGGGGG | -0.244
GCCACGCA | -0.184
AAGTGTGA | -0.292
CGTCCTAC | -0.0358
TCCTTACA | -0.00686
AGACCAGG | -0.00335
ATAGTAAT | 0.0781
AGTTACAA | 0.0599
CGCAGCCC | -0.00814
GGCCGACA | 0.383
GGACAGCC | 0.206
AGCGGCCG | 0.325
CGGCTTCC | 0.133
AACCCTCA | -0.135
GCGCTAGC | -0.101
CACATTGG | -0.108
ATCAATCA | -0.0368

Sequence | PBM E-score
CGGCTGAA | 0.183
ATCTGGAG | 0.0635
TAGGTTGA | -0.103
CCGTGTGC | 0.254
GCAAGACC | -0.0761
CCTTCGGC | 0.27
CAGGTTGC | -0.0853
GGCCACCC | 0.122
CCGGCTAG | 0.223
GGGAGAAA | 0.0441
GTGTATTA | 0.0196
AGTGCACT | -0.0451
ACTGAACT | -0.12
AGGCTGCA | -0.28
GACCTATA | 0.0889
GGCGCCCC | 0.095
CGAGACGA | 0.0521
ATTAGGCA | -0.0817
AGGAATAT | -0.0307
CCTATCAC | -0.0184
GCTTGCAC | -0.0999
AAACCGGC | 0.338
ACGCTCCT | -0.35
CTGTCTCC | 0.0431
TACAGGTA | -0.149
AAATCACT | -0.138

Sequence | PBM E-score
TGCTGAAA | -0.0894
AGCGCATC | -0.00234
CATCGCGG | 0.0723
ATGCCATG | -0.134
AACATCTC | -0.029
GCTCCAAC | -0.0259
GTAACCTA | 0.123
ACGATCAG | -0.2
CTGAGCCA | -0.151
TGAAAGCA | -0.141
AACGAAAC | -0.164
GGCGTCAC | -0.0838
GGGCCCTA | -0.0484
AAACTTTG | -0.0327
ATGTTAAG | -0.0437
ACGAGCTA | -0.108
GAAATCCC | 0.134
GGTCTGGA | -0.079
AGGATTAC | -0.18
ATCGCCAC | 0.187
CTTCCACA | -0.181
CCTAAAAC | -0.0449
TACTCATA | -0.204
CAGGCGCC | 0.0461
GCCATAAC | -0.0896
AAGCGCAC | 0.146

Sequence | PBM E-score
CTTGATAC | -0.266
GAGCACTC | 0.0309
GGACACCA | -0.0111
ACATAGGG | -0.123
GCTTTACA | -0.00584
CGGATCAG | 0.259
GATAAACA | 0.122
ACGGGTAT | 0.0846
CAACATCG | 0.194
GGCAACTA | -0.00809
GCAAACAA | -0.0796
AGTCAAAC | -0.073
CTCGTTAA | -0.0743
AATTCGGA | 0.414
CAACGTTG | -0.108
GGCGTCCA | -0.0278
ATCTTTGC | -0.116
ACGTTTAA | -0.141
CAACTAAA | -0.0958
AACGAGTT | -0.237
CCCATTGA | -0.142
GCCATCAC | -0.0971
ATGTATGA | -0.271
GCACTCTA | -0.126
CGAGGCTA | 0.0332
CAAGTAAC | -0.221

Sequence | PBM E-score
CAACCAGA | -0.154
AGCCTTGG | -0.244
CCCAGAAG | -0.0844
AGAATACT | -0.161
AACTAGTA | -0.298
AAGTGTCC | 0.164
GCATGACC | -0.0947
GACCGTCA | -0.0568
TATGAATA | -0.0221
AGTACCTA | -0.186
AGTTAACA | 0.0988
GTAAACAC | 0.128
CACTTTCA | -0.168
ATAGGGCA | -0.197
CCATACCG | 0.179
AACAGCAT | 0.00086
CCCTCGAA | -0.201
GCAACTTA | 0.0419
ACCACTAC | -0.0906
GTGCTAAA | -0.0297
CATAGCCG | 0.254
AATGACCA | -0.0277
AGTTCGAC | -0.196
CGTGCACA | -0.349
TCGGAAAA | 0.402
GCTCCGCA | 0.164

Sequence | PBM E-score
ATGCATTC | -0.158
AGCCAACG | -0.146
AGCGAACT | -0.137
GACATATC | 0.154
CAGAACAA | -0.101
CCTCGAGC | -0.0451
CCAGGGCA | -0.0795
CCCAGGAG | -0.243
ACGGGATA | 0.117
ATAAGGTC | 0.128
AGTACTTA | -0.0868
ACCAATAC | -0.107
TTAACAAA | 0.0395
CGATACAA | 0.254
AGAGAGCA | -0.15
CACAAATA | -0.119
GCGTCGCA | -0.0356
AGGGTGCG | -0.0707
CGGGTCCA | 0.226
CCGCGCGG | 0.367
ACAATACA | -0.0809
GCCCGCTA | 0.159
CGAATTAC | 0.15
TGATGACA | -0.159
TCCCGCGA | 0.223
ACTTATGC | -0.0713

Sequence | PBM E-score
GAGATATC | 0.261
CGCCGTAG | 0.187
GGCGAACC | 0.0857
CAAAACTC | 0.131
ATGCCACA | -0.175
GGAGGTAC | 0.126
CCCCATTC | 0.0138
GAAACTGC | -0.0752
CGAGTTCC | 0.00518
TAATCATA | -0.134
CCACCAGC | -0.0628
GACGCCGA | 0.218
GCCGGGAC | 0.185
AGGAGCGG | -0.0364
AAGGCCAC | -0.138

Reference: the supplement of paper PMC3334620
